# Measurements taken from PubChem BioAssay AID1460 (National Center for Advancing Translational Sciences (NCATS), 2008).
# Where “and” joins values, the source holds several entries; their conditions need not be identical. Equal entries are not always repeated. About 5,800 (2.1%) of roughly 270,000 compounds were called active. Inconclusive results, whose numbers are uncertain, are shown with a selection of clear calls. Calls come from the whole dose curve; as a rule, active = well fitted inhibition curve with a large enough effect; inconclusive = small, poorly fitted or top-dose-only effect; inactive = flat fitted curve, though single readings scatter. Potencies of inconclusive entries are doubtful fits and often do not repeat.
# Target: Microtubule-associated protein tau (Homo sapiens) (UniProt P10636)
# Assay: qHTS for Inhibitors of Tau Fibril Formation, Thioflavin T Binding; note: nearly all actives have a fitted effect of over 55% in size
# Conditions: recombinant tau K18 P301L (four-repeat tau fragment), heparin-induced fibrillization, ThT fluorescence; series mostly up to 57.4 µM
# Summary of the method: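 In this qHTS, human K18 P301L tau is incubated with compound and heparin for 6 hr at 37 C, and Thioflavin T fluorescence then reports fibril load.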
# % is set by controls: 0 for no effect and ±100 for the full control effect; potency is the fitted concentration of half-maximal effect; tags give direction and shape of the fitted curve.
# Chain of UniProt P10636 (P10636 whole entry, looked up): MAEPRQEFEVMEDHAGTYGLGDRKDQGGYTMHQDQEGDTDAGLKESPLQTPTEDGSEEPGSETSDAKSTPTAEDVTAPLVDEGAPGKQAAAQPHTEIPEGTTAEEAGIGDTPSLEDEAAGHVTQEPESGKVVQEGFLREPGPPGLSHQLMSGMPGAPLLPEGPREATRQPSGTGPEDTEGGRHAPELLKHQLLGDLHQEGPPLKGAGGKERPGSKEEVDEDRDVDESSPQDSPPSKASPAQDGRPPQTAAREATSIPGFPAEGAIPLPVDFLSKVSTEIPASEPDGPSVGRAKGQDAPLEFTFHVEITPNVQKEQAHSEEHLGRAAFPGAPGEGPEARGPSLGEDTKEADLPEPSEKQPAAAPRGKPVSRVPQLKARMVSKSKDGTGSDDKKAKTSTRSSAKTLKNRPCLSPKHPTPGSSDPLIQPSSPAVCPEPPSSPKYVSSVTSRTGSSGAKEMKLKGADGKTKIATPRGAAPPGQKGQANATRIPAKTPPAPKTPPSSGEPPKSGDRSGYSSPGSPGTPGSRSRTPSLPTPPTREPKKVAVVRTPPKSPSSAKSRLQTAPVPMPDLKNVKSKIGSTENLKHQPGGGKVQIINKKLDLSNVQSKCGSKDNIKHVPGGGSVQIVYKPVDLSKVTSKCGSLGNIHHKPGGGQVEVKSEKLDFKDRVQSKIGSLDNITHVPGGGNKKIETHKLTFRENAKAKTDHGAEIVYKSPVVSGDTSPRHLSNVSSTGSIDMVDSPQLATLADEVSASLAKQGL
SMILES,Potency,"activity, negative = inhibition"
C#CCOC(=O)c1ccccc1C(=O)n1nnc2ccccc21,"inconclusive: 11.2 µM [inhibitor, partial curve]",
CC(=O)c1cc(-c2ccccc2)n(CCC(=O)NCc2ccc(C)cc2)c1C,inactive,
O=C(Cn1nnc(-c2ccc(N3CCOCC3)cc2)n1)OC1CCCCC1,"inconclusive: 0.794 µM [inhibitor, full curve]",
COc1cc(/C=N/NC(=O)C2C3CCCCC32C)cc(Br)c1O (stereo not given),"inconclusive: 15.8 µM [inhibitor, partial curve]",
COc1cc(/C=C2\CC/C(=C\c3cc(OC)c(O)c(OC)c3)C2=O)cc(OC)c1O,active: 6.31 µM,
CCc1ccc(NC(=O)Cn2c(=O)n(CCCCC(=O)NCc3ccc4c(c3)OCO4)c(=O)c3ccccc32)cc1,inactive,
CCCNS(=O)(=O)c1ccc2nc(NC(=O)c3ccc(F)cc3)sc2c1,active: 28.2 µM,
Cc1ccc2nc(N3CCN(c4ccccc4)CC3)c3nnnn3c2c1,"inconclusive: 2.82 µM [inhibitor, partial curve]",
CCc1cccc(NC(=O)c2cn3c4c(ccc(Cl)c4c2=O)OC(C)C3)c1 (stereo not given),inactive,
COc1cc2cc(CNc3ccccc3)c(=O)n(CC(=O)Nc3ccccc3)c2cc1OC,"inconclusive: 11.2 µM [inhibitor, partial curve]",
CCOC(=O)c1cc(C)n(CC2CCC(C(=O)Nc3ccc(C(C)=O)cc3)CC2)c1C (stereo not given),inactive,
O=C(Oc1ccc(NC2=C(Cl)C(=O)c3ccccc3C2=O)cc1)c1ccc([N+](=O)[O-])cc1,active: 3.16 µM,
COc1cc(C(=O)OCc2cc(=O)n3nc(C4CCCCC4)sc3n2)cc(OC)c1OC,inactive,
COc1ccc([N+](=O)[O-])cc1C1NN=C(c2ccccc2O)S1 (stereo not given),"inconclusive: 25.1 µM [inhibitor, single point]",
Cc1cc(C(=O)CCC(=O)N2CCN(c3ccccc3F)CC2)c(C)s1,"inconclusive: 22.4 µM [inhibitor, partial curve]",
COc1ccc(C(=O)CSc2nc3ccccc3n2CC(=O)c2ccccc2)cc1,"inconclusive: 44.7 µM [inhibitor, partial curve, poor fit]",
CCCCS(=O)(=O)N1C2=NC(C(=O)OC)=C(C(=O)OC)[C@@H]3Nc4ccccc4[C@]23C[C@H]1C(=O)OC,,inactive: 0.868% [at 11.5 µM]
N#C/C(=C\c1c(N2CCCCCC2)nc2ccccn2c1=O)C(=O)NCc1ccco1,"inconclusive: 15.8 µM [inhibitor, partial curve, poor fit]",
COc1ccc(Nc2oc(-c3cccs3)nc2C#N)cc1,"inconclusive: 14.1 µM [inhibitor, partial curve]",
CCOC(=O)c1ccc2[nH]c3c(c2c1)CCCC3C(=O)OCC (stereo not given),"inconclusive: 31.6 µM [inhibitor, partial curve, poor fit]",
CCOc1ccc(/C=C/C(=O)Nc2sc3c(c2C(=O)OC)C(C(=O)OC)CC3)cc1 (stereo not given),active: 3.16 µM,
Cc1ccc(-n2c(SCC(=O)N3CCCc4ccccc43)nnc2-c2cccnc2)c(C)c1,inactive,
COC(=O)c1ccc(NC(=O)CSc2nc(C)cc(C)c2C(=O)Nc2ccccc2)cc1,inactive,
O=c1nc(N2CCOCC2)ccn1-c1nc(-c2ccccc2)sc1-c1ccccc1,inactive,

SMILES,Potency,"activity, negative = inhibition"
O=C(N/N=C/c1ccc[nH]1)c1cccc(Br)c1,"inconclusive: 20 µM [inhibitor, single point]",
O=c1oc2ccc(Cl)cc2cc1-c1nnc(Nc2cccc(C(F)(F)F)c2)s1,"inconclusive: 2 µM [inhibitor, full curve, poor fit]",
CCN1CCCc2cc(CN(CCN3CCOCC3)C(=S)Nc3cccc(C)c3)ccc21,"inconclusive: 22.4 µM [inhibitor, partial curve]",
Cn1c(SCc2ccc(C(=O)Nc3nccs3)cc2)nnc1-c1ccccc1,"inconclusive: 3.55 µM [inhibitor, partial curve]",
Cc1ccc(-n2ncc(C(=O)NCCc3ccccc3)c2C2CCN(C(=O)OC(C)(C)C)CC2)c(C)c1,"inconclusive: 25.1 µM [inhibitor, single point]",
COc1ccc(NC(=O)CCCCC#Cc2ccccc2)cc1,"inconclusive: 20 µM [inhibitor, partial curve]",
O=C1c2ccccc2-c2nc3ccccc3nc21,active: 20 µM,
Cc1ccc(-n2c(-c3ccncc3)n[nH]c2=S)cc1,inactive,
Cc1ccsc1/C=C/C1=Cc2c(sc(NC(=O)CSc3n[nH]c(N)n3)c2C#N)C(C)(C)C1,active: 15.8 µM,
COc1cccc(NC(=O)C2CCN(S(=O)(=O)c3cccc4nonc34)CC2)c1,inactive,
CC(C)n1cnc2c(N(C)c3ccccc3)nc(N(CCN(C)C)Cc3ccccc3)nc21,"inconclusive: 12.6 µM [inhibitor, partial curve]",
O=C1c2ccccc2-c2nnc(-c3ccc(F)cc3)cc21,"inconclusive: 4.47 µM [inhibitor, partial curve]",
CCN(CC)c1nc2c(-c3cccc(Br)c3)nnn2c2ccccc12,"inconclusive: 31.6 µM [inhibitor, single point]",
C=C(CC(=O)OC)C[C@]1(CC(=O)OC)CC2(CC=C(C)C)C(=O)C(C(=O)c3ccccc3)=C(OC(=O)c3ccc(Br)cc3)C(CC=C(C)C)(C1)C2=O (stereo not given in full),,inactive: -14.5% [at 11.5 µM]
N#Cc1c(N2CCCC(O)C2)nc(N)c2c(N)nc3c(c12)CC(=O)N3C12CC3CC(CC(C3)C1)C2 (stereo not given),"inconclusive: 22.4 µM [inhibitor, partial curve]",
CC1CCCCN1C(=O)Cn1c(=O)n(-c2ccc(Cl)cc2)c(=O)c2c3c(sc21)CCC3 (stereo not given),inactive,
CSc1nc(=O)c2c(n1C)NC(=O)CC2c1ccccc1OC(C)C (stereo not given),inactive,
CCCCS(=O)(=O)c1sc2nc(C)cc(C)c2c1N,inactive,
CCOC(=O)c1c(C)c(C(=O)Nc2ccc3c(c2)OCCO3)c(C)n1C,"inconclusive: 17.8 µM [inhibitor, partial curve]",
COCCOC(=O)c1c(NC(=O)CNCc2ccco2)sc(C(N)=O)c1C,"inconclusive: 28.2 µM [inhibitor, single point]",
O=C(CSc1ccc(F)cc1)N1CCC(c2nc3ccccc3s2)CC1,inactive,
O=C(O)CSCC(=O)c1ccccc1,inactive,
CCN1C(=O)/C(=C/C=C2/SCCN2C)SC1=S,"inconclusive: 3.55 µM [inhibitor, full curve]",
COc1ccc(-c2cc(=O)c3ccccc3o2)cc1OC,"inconclusive: 4.47 µM [inhibitor, full curve]",

SMILES,Potency,"activity, negative = inhibition"
Cc1nonc1CN(C)C(=O)CC1C(=O)NCCN1Cc1c(F)cccc1Cl (stereo not given),"inconclusive: 11.2 µM [activator, partial curve, poor fit]",
CN(C)c1ccc(/C=N/NC(=O)c2ccccn2)cc1,"inconclusive: 7.94 µM [inhibitor, partial curve]",
CC(=O)OCC(=O)[C@H]1CC[C@H]2[C@@H]3CCC4=CC(=O)CC[C@]4(C)[C@H]3CC[C@]12C,"inconclusive: 178 nM [inhibitor, partial curve, poor fit] and inconclusive: 14.1 µM [inhibitor, partial curve]",
O=[N+]([O-])c1ccccc1NCCOc1ccccc1,"inconclusive: 14.1 µM [inhibitor, partial curve]",
C/C(=N\NC(=O)c1cccc(N2CCCC2=O)c1)c1ccc(N)cc1,"inconclusive: 17.8 µM [inhibitor, partial curve]",
O=[N+]([O-])c1ccc2nc(-[n+]3c(-c4ccccc4)cc(-c4ccccc4)cc3-c3ccccc3)[nH]c2c1,"inconclusive: 39.8 µM [inhibitor, single point]",
Cc1ccc(Nc2c(-c3ccc(N(C)C)cc3)nc3nc[nH]n23)cc1,active: 14.1 µM,
N/C(=N\OC(=O)c1ccc2ccccc2c1)c1ccccn1,inactive,
Cc1sc(N2C(=O)C3C4C=CC(C4)C3C2=O)c(C#N)c1C (stereo not given),"inconclusive: 39.8 µM [inhibitor, single point]",
Cc1cc(C)c2c(N)c3cccc(C)c3nc2n1,"inconclusive: 12.6 µM [inhibitor, partial curve]",
COCCCn1c(=N)c(C(=O)NCC2CCCO2)cc2c(=O)n3cc(C)ccc3nc21 (stereo not given),inactive,
Cc1cccc(N=Nc2c(C)nn(-c3ccccc3)c2N)c1C,active: 7.08 µM,
Cc1ccc(S(=O)(=O)NCC2CCC(C(=O)NCc3ccc(F)cc3)CC2)cc1 (stereo not given),inactive,
Cc1ccc(NC(=O)CSc2nc3ccccc3c3nc4ccccc4n23)cc1,inactive,
Cc1oncc1-c1cn2ccccc2n1,inactive,
COC(=O)c1ccc(NC(=O)CN2CCN(c3cccc(Cl)c3)CC2)cc1,"inconclusive: 17.8 µM [inhibitor, single point]",
CCn1c(SCCOc2ccc(Cl)cc2)nnc1-c1cccs1,"inconclusive: 17.8 µM [inhibitor, partial curve]",
CC(=O)c1sc(N/N=C\c2ccc(C)cc2)nc1C,"inconclusive: 28.2 µM [inhibitor, partial curve]",
Cc1ccc2nc(NS(C)(=O)=O)sc2c1,inactive,
COC(=O)CC1Oc2ccccc2-n2cc(-c3ccc(C)cc3)nc21 (stereo not given),inactive,
COC(=O)C1(C(=O)OC)Cc2conc2[C@H]1c1ccccc1,"inconclusive: 8.91 µM [inhibitor, single point]",
Cc1ccc(-c2nnc(SCC#CCOC(=O)c3ccco3)o2)cc1,"inconclusive: 3.16 µM [inhibitor, partial curve]",
